The densities may have been worked out from excess volumes.
Assay: xn = mol fraction of the nth substance listed
Conditions: 101.3 kPa

CC(=O)[O-].CN1CCCN2CCC[NH+]=C12 + O
mass density [kg/m3]
Conditions	x1 = 0.103	x1 = 0.206	x1 = 0.301	x1 = 0.405	x1 = 0.494	x1 = 0.604
278.2 K	1120.3	1154.2	1165.7	–	1170.8	1171
283.2 K	–	–	1162.1	1165.6	–	1167.4
288.2 K	1113.6	1147.1	1158.8	1162.2	1163.5	1163.9
293.2 K	1110	1143.5	1155.1	–	1160	1160.5
298.2 K	1106.6	1139.9	–	1155.4	–	1157
303.2 K	1103.4	1136.3	–	1152	1153.2	–
308.2 K	1099.9	–	–	1148.5	1149.7	1149.9
313.2 K	1096.4	1128.8	–	1145	–	1146.4
318.2 K	1092.6	1125.3	–	1141.5	–	1142.9
323.2 K	1089.3	1121.6	1134.1	1137.8	1138.8	–
328.2 K	1085.7	1117.9	1130.5	1134.2	1135.5	1135.8
333.2 K	1082.1	–	1126.9	1130.9	1131.6	1132.2
338.2 K	1078.4	1110.3	1123.3	1127.1	–	1128.6
343.2 K	–	1106.8	1119.6	1123.7	1124.4	1125
348.2 K	1071	1103.1	1116	1120.1	1121.1	1121.4
353.2 K	1067	1099.1	–	1116.5	1117.2	1117.8
358.2 K	–	–	1108.6	1112.8	1113.5	–
363.2 K	1059.4	1091.5	1104.8	1109.2	1110.1	–
368.2 K	–	1087.9	1101.1	1105.5	1106.2	–
373.2 K	–	1083.8	–	1101.8	1102.7	–

Source: a compilation of properties of binary mixtures (doi:10.1016/j.fluid.2022.113414)
